This is one part of the list. Sequences were assembled here from the parent chain. Values near 0.05 are background.
B1: TEV protease; numbered along this chain (parent)
chain: MGESLFKGPRDYNPISSSICHLTNESDGHTTSLYGIGFGPFIITNKHLFRRNNGTLVVQSLHGVFKVKDTTTLQQHLVDGRDMIIIRMPKDFPPFPQKLKFREPQREERICLVTTNFQTKSMSSMVSDTSCTFPSGDGIFWKHWIQTKDGQCGSPLVSTRDGFIVGIHSASNFTNTNNYFTSVPKNFMELLTNQEAQQWVSGWRLNADSVLWGGHKVFMVKPEEPFQPVKEATQL

Variants of: B1
Experiment: raw area under fraction-flipped curve 0-4 h after induction (AUC4h, not background-subtracted), DNA-recorder readout of cleavage of the substrate (dimensionless); higher = more cleavage of the substrate by the protease variant
Settings: temperature: 34 °C; time window: 0-4 h after rhamnose induction
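Further: Bxb1 expression induced with 0.2% (w/v) L-rhamnose at OD600 near 0.5, cultures sampled hourly, flipped fraction per protease–substrate barcode pair counted by paired-end Illumina sequencing.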

Variant | area with substrate ENCYFQS | area with substrate ENEYFQS | area with substrate ENFYFQS | area with substrate ENNYFQS | area with substrate ENPYFQS | area with substrate ENQYFQS | area with substrate ENRYFQS | area with substrate ENSYFQS | area with substrate ENTYFQS | area with substrate ENVYFQS
T174Y | 0.0465 | 0.074 | 0.0839 | 0.0601 | 0.0563 | 0.0661 | 0.0699 | 0.0902 | 0.066 | 0.1
T174A | 0.0577 | – | – | – | – | 0.0496 | 0.0572 | – | – | –
G202C | – | 0.0645 | – | – | 0.057 | – | 0.067 | 0.0534 | 0.0567 | –
A207S | – | 0.0544 | 0.0811 | 0.0681 | – | 0.0675 | 0.0625 | 0.0594 | 0.055 | 0.0703
E195Y | – | 0.07 | – | – | – | – | 0.0576 | 0.066 | 0.0648 | –
V57R | – | 0.0542 | 0.08 | – | – | 0.0627 | – | 0.0628 | 0.0789 | 0.0773
P96Q | – | 0.0641 | – | 0.043 | – | 0.069 | 0.0607 | 0.0554 | 0.0787 | –
P184K | – | – | – | 0.0559 | – | – | 0.0626 | 0.0519 | 0.0619 | 0.0651
P184E | 0.0612 | 0.0588 | – | 0.0664 | – | 0.0488 | 0.0492 | 0.0777 | 0.0586 | –
P184Y | – | 0.06 | – | – | – | 0.0505 | 0.0612 | 0.0646 | 0.0272 | –
N186A | – | – | 0.0905 | – | 0.0478 | – | – | – | – | –
N186Y | 0.0623 | – | – | 0.0639 | – | – | – | – | 0.0507 | –
T72E | – | – | 0.0599 | – | 0.0629 | 0.0656 | – | 0.0446 | – | –
D137P | – | 0.0625 | – | – | – | – | 0.0677 | – | – | 0.0846
M219A | 0.0665 | 0.0651 | 0.0638 | – | – | 0.0596 | 0.0601 | 0.104 | – | 0.0494
F163H | – | – | 0.0358 | – | – | 0.0494 | – | – | – | 0.0469
W144I | – | 0.0687 | – | – | – | 0.0615 | 0.048 | 0.065 | 0.0481 | 0.0729
E3Y | – | 0.0625 | 0.0588 | 0.0742 | – | – | 0.0521 | – | – | 0.0837
T176E | 0.0733 | 0.0689 | 0.0657 | 0.0663 | 0.0557 | 0.0753 | – | 0.0636 | – | 0.0907
T176G | – | 0.0589 | – | 0.0656 | – | 0.0552 | 0.0703 | 0.0678 | – | –
T176H | – | 0.0687 | – | 0.0611 | – | 0.0741 | 0.0676 | – | – | 0.0485
C152Q | – | – | 0.0077 | – | 0.0736 | 0.107 | – | – | – | 0.0239
C152H | – | 0.0618 | 0.0596 | – | – | 0.0574 | – | 0.0652 | – | 0.0526
R106P | – | 0.0654 | – | 0.0635 | 0.058 | – | 0.0519 | 0.0546 | 0.0588 | 0.0825
E189K | – | 0.0662 | – | – | – | 0.0656 | – | 0.0639 | 0.0621 | –
N172C | 0.0621 | 0.0916 | – | 0.0595 | 0.074 | 0.0646 | – | – | – | –
I164F | – | 0.0598 | 0.0437 | – | – | 0.0339 | – | – | – | –
L48T | – | 0.0653 | 0.0433 | – | – | 0.0451 | 0.025 | 0.0585 | 0.0656 | 0.0592
G37Q | – | 0.042 | 0.0428 | 0.0458 | 0.0551 | 0.0626 | 0.0625 | 0.0846 | 0.0595 | 0.0591
P9Q | – | 0.0585 | 0.0555 | 0.0631 | – | 0.0596 | – | 0.0545 | – | –

Same assay, conditions: temperature: 34 °C; time window: 0-4 h after rhamnose induction

Variant | area with substrate ENDYFQS | area with substrate ENHYFQS | area with substrate ENIYFQS | area with substrate ENGYFQS | area with substrate ENKYFQS | area with substrate ENMYFQS | area with substrate ENWYFQS | area with substrate ENYYFQS
T174A | 0.0593 | 0.0539 | 0.0928 | – | – | – | – | –
G202C | 0.0266 | 0.0437 | 0.0689 | 0.0505 | 0.0805 | 0.0631 | 0.0522 | –
A207S | 0.0689 | 0.0584 | 0.111 | 0.0582 | 0.0541 | 0.081 | 0.0396 | 0.0588
V57R | 0.059 | – | 0.127 | – | – | 0.103 | 0.0635 | –
P96Q | – | – | 0.123 | 0.0642 | – | – | 0.0527 | 0.0387
P184K | – | 0.0625 | – | – | 0.0619 | 0.0551 | – | 0.0574
P184E | – | – | – | – | – | – | – | 0.0616
P184Y | 0.0522 | 0.0603 | – | – | – | 0.0742 | – | –
N186Y | – | – | 0.0928 | – | – | – | – | –
T72E | – | 0.0497 | – | – | – | – | – | 0.0616
D137P | – | 0.0532 | – | 0.0611 | – | 0.108 | – | –
M219A | 0.0717 | 0.06 | – | – | 0.0526 | 0.0631 | 0.0677 | 0.0437
F163H | 0.0697 | 0.0743 | – | – | 0.0597 | – | – | 0.0556
W144I | 0.0682 | – | 0.0879 | 0.0754 | – | – | – | 0.0597
E3Y | – | – | 0.118 | – | 0.0612 | – | 0.0671 | –
T176E | 0.0364 | 0.0648 | 0.0715 | – | – | 0.068 | – | –
T176G | 0.0606 | 0.0563 | – | – | 0.077 | – | 0.0546 | –
T176H | 0.0641 | 0.0744 | 0.0662 | – | – | 0.0661 | – | –
C152Q | 0.065 | – | – | – | – | – | – | –
C152H | – | – | – | – | – | – | – | 0.0485
R106P | – | 0.0581 | 0.13 | 0.0542 | – | – | – | –
E189K | – | – | 0.106 | – | 0.0579 | – | – | –
N172C | 0.0616 | – | – | 0.067 | – | – | – | –
I164F | – | – | 0.0397 | – | – | 0.0358 | – | –
L48T | 0.054 | 0.0623 | – | 0.0438 | 0.0717 | 0.0641 | – | 0.0777
G37Q | 0.0492 | 0.0613 | 0.0732 | 0.056 | – | – | 0.0448 | –
P9Q | 0.0552 | 0.0653 | – | 0.0501 | – | – | 0.0489 | –

— the supplement of paper PMC12217912
